Measured values as given in PubChem BioAssay AID588855 (National Center for Advancing Translational Sciences (NCATS), 2011).
About 5,000 (1.2%) of roughly 410,000 compounds were called active. The shares of active, inactive and inconclusive entries below differ from those in the screen. Calls come from the whole dose curve; as a rule, active = well fitted inhibition curve with a large enough effect; inconclusive = small, poorly fitted or top-dose-only effect; inactive = no such curve, though single readings can be large or run the other way. Where the call is inconclusive, the potency comes from a doubtful curve fit.

Assay: qHTS for Inhibitors of TGF-b; note: nearly all actives have a fitted effect of over 65% in size
Conditions: HepG2 CAGA-GFP TGF-b/SMAD3 reporter, GFP fluorescence, 18 h, TGF-beta stimulated, 500 pg/mL final; series mostly up to 46.1 µM; activity, negative = inhibition: at the top concentration
In short: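 Using HEPG2 CAGA-GFP reporter cells at 1000 cells/well, we pinned test compounds, stimulated with recombinant TGF-beta (500 pg/mL final) and measured total well GFP after 18 h.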
% is set by controls: 0 for no effect and ±100 for the full control effect; potency is the fitted concentration of half-maximal effect; tags give direction and shape of the fitted curve.

Compound | Potency | activity, negative = inhibition
OCCC1CN(Cc2cnc(-c3ccc(Cl)cc3)nc2)CCN1C1CCCCC1 (stereo not drawn) | inconclusive: 20 µM [inhibitor, single point] | 
CC(C)(C)c1nn(-c2ccccc2)c2nc(Cl)c(C=O)cc12 | inconclusive: 3.55 µM [inhibitor, single point] | 
COc1ccccc1-c1noc(-c2ccc(N3CCC(C)CC3)c([N+](=O)[O-])c2)n1 | inconclusive: 0.112 µM [inhibitor, full curve, poor fit] | 
COc1ccc(C(=O)N2[C@@H](C(C)C)COc3cc(Br)ccc3S2(=O)=O)cc1 | inconclusive: 20 µM [inhibitor, partial curve, poor fit] | 
Cc1ccc(-n2cc(CN3CCN(c4ccccn4)CC3)c(-c3ccc(F)cc3)n2)cc1 | inconclusive: 15.8 µM [inhibitor, single point] | 
CC(OC(=O)CN1C(=O)NC2(CCCC2)C1=O)C(=O)Nc1cccc(Cl)c1 (stereo not drawn) | inconclusive: 8.91 µM [inhibitor, partial curve] | 
COc1ccc2c(c1)OC[C@H]1[C@H]2N2C(=O)CN(Cc3ccco3)C(=O)[C@@]2(C)[C@H]1c1ccccc1 |  | inactive: 10.1%
O=C(Nc1ccc(F)cc1)Nc1nnc(Cc2ccccc2)s1 | inconclusive: 6.31 µM [inhibitor, single point] | 
COC(=O)CCSc1nc2sc3c(c2c(=O)n1Cc1ccccc1)CCC(C(C)(C)C)C3 (stereo not drawn) |  | inactive: 33.8%
CCc1ccccc1NS(=O)(=O)c1ccc(OC)c2ncccc12 | inconclusive: 35.5 µM [inhibitor, single point] | 
COc1cccc(C(O)c2nc(-c3cccc(C(C)C)c3)cs2)c1 (stereo not drawn) | inconclusive: 35.5 µM [inhibitor, single point] | 
O=C(CC1CCCC1)N1CCN(S(=O)(=O)c2cccc(Br)c2)CC1 |  | inactive: 11.6%
Cc1ccc(NC(=O)N2CCC(c3nc4c(nnn4Cc4cccc(Cl)c4)c(=O)[nH]3)CC2)cc1 | inconclusive: 35.5 µM [inhibitor, single point] | 
O=C(Nc1ccc(F)c(Cl)c1)C1Cc2c(-c3ccccc3Oc3ccccc3)ccnc2O1 (stereo not drawn) | inconclusive: 22.4 µM [inhibitor, single point] | 
O=C(Nc1ccc2c(c1)OCCO2)c1ccco1 |  | inactive: 4.32%
CC(C)C[C@@H](CO)N1CCN(CCCc2ccccc2)CCC1=O | inconclusive: 15.8 µM [inhibitor, single point] | 
COC(=O)c1ccccc1Oc1ccc(NC(=O)C(C)(C)CCl)cc1 | inconclusive: 25.1 µM [inhibitor, single point] | 
CCOC(=O)c1c(Nc2ccc(C)cc2)nnc(-c2ccccc2)c1-c1ccccc1 | inconclusive: 12.6 µM [inhibitor, single point] | 
